The values below come from PubChem BioAssay AID1963576 (National Center for Advancing Translational Sciences (NCATS), 2024).

Molecules are shown by their SMILES. The whole screen tested about 46,000 compounds, of which about 60 (0.1%) were called active. Not shown: some 3% with an inconclusive outcome. Calls come from the whole dose curve; as a rule, active = well fitted inhibition curve with a large enough effect; inconclusive = small, poorly fitted or top-dose-only effect; inactive = no such curve, though single readings can be large or run the other way. The list shows a part of the results.

A short description of this experiment: Primary qHTS assay for Inhibitors of ovarian cancer metastasis using an organotypic tumor microenvironment (TME) model.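 For activity change, negative = inhibition: plate controls were DMSO wells for no effect and tomatine positive control wells for full effect.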 Note: nearly all actives have a fitted effect of over 65% in size. Particulars: SKOV3ip1-GFP adhesion/invasion on 3D omental model, fluorescence; series mostly up to 45.8 µM; activity change, negative = inhibition: at the top concentration. Put shortly: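 Primary human omental fibroblast/mesothelial 3D culture pre-formed 48 h. SKOV3ip1-GFP cells added with compounds (0.36-46 umol/L), incubated 2 h RT/16 h 37 C, fixed; GFP cells quantified at 488/509 nm.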
(In general: qHTS replaces the single test concentration by a dilution series.)
With `Cn1ncc2c(NCc3cccc(Cl)c3)ncnc21`, the “activity change, negative = inhibition” value is inactive: 0.939%. With `CCN(CC)S(=O)(=O)c1ccc2c(c1)N(CC(=O)NCc1ccccc1)C(=O)CS2`, the “activity change, negative = inhibition” value is inactive: 2.35%. For the molecule `CCOc1ccc(NC(=O)Nc2c(C)n(C)n(-c3ccccc3)c2=O)cc1`, the “activity change, negative = inhibition” value is inactive: -6.77%. Still for that read-out and setting: under `O=C(CN1C(=O)CCSc2ccc(S(=O)(=O)N3CCCC3)cc21)Nc1cccc(Cl)c1` stands inactive: -8.36%; under `Cc1cnc(NC(=O)C2=C(O)c3ccccc3S(=O)(=O)N2C)s1`, inactive: -9.07%. As to `NC(=O)CSc1ncc2c(n1)-c1ccccc1N(Cc1ccccc1)S2(=O)=O`, the “activity change, negative = inhibition” value is inactive: 2.63%. In the case of `COc1ccc(NC(=O)c2cccc(N3CCCS3(=O)=O)c2)cc1`, the molecule was called inactive.

As to `Cc1ccc(-c2noc(CCC(=O)Nc3ccc(F)cc3Cl)n2)cc1`, the “activity change, negative = inhibition” value was inactive: 1.21%.

Turning to `Cc1nn(C)c2c1c(-c1ccccc1)cc(=O)n2Cc1ccccc1F`, the “activity change, negative = inhibition” value was inactive: 7.57%. Same read-out and setting: the value for `CCCS(=O)(=O)N1CCC(N2CCN(Cc3ccc(C)cc3)C(=O)C2=O)CC1` was inactive: 0.939%.

On to `Cc1c(Cl)cccc1NC(=O)N1CCN(Cc2cc(=O)n3nc(-c4ccccc4F)sc3n2)CC1`, for which the “activity change, negative = inhibition” value is inactive: 3.53%.

Consider `Cc1ccccc1CNC(=O)C(=O)NCC(c1ccco1)S(=O)(=O)c1ccc(F)cc1` (configuration not stated), for which the call was inactive. As for `COc1cccc(CNC(=O)Cn2c(=O)c3cccn3c3ccc(F)cc32)c1OC`, the outcome was inactive. Take `Cc1cc(C)c2c(=O)cc(C(=O)NCCc3ccc(S(N)(=O)=O)cc3)oc2c1`: the “activity change, negative = inhibition” value was inactive: 5.5%.

`COc1ccc(NS(=O)(=O)c2ccc3c(c2)CCN3C(=O)C2CC2)cc1OC`: the “activity change, negative = inhibition” value was inactive: -2.67%.

`COc1cccc2cc(-c3nnc(Nc4ccccc4C)s3)c(=O)oc12`: the “activity change, negative = inhibition” value is inactive: 5.47%. In the case of `COc1ccccc1N1CCN(C(=O)CCn2cnc3onc(-c4ccc(F)cc4)c3c2=O)CC1`, the “activity change, negative = inhibition” value was inactive: 1.91%. Still for that read-out and setting: the value for `COC(=O)c1sccc1S(=O)(=O)N(CC(=O)Nc1ccc(C)cc1)c1ccccc1` was inactive: -8.78%; that for `Cc1noc2ncnc(Nc3ccc(F)cc3)c12` was inactive: 11.9%.

In the case of `Cc1cccc(NC(=O)C(c2ccccc2)N2Cc3ccccc3C2=O)c1C` (configuration not stated), the “activity change, negative = inhibition” value is inactive: 1.63%. With `Cc1cccc(NC(=O)CSc2nnc(-c3cccs3)o2)c1`, the “activity change, negative = inhibition” value is inactive: 1.73%. With `Cc1ccc(CCNC(=O)NCc2noc3ccc(C)cc23)cc1`, the “activity change, negative = inhibition” value is inactive: -27.7%. With `CCOc1ccc(-c2cc3nc(C4CCN(C(=O)OC(C)(C)C)CC4)c(C(=O)Nc4ccc(C(=O)OC)cc4)cn3n2)cc1`, the “activity change, negative = inhibition” value is inactive: -2.6%. Turning to `Cn1ncc(C(=O)N2CCN(c3ccccc3)CC2)c1C1CCN(C(=O)OC(C)(C)C)CC1`, the “activity change, negative = inhibition” value is inactive: -9.46%. On the same count and under the same terms, the value for `COc1ccc(NC(=O)Cn2c(=O)nc(-c3ccccc3)c3ccccc32)cc1OC` was inactive: -7.52%; that for `Cc1cc(C)cc(N2C(=O)CS(=O)(=O)C23C(=O)N(Cc2ccc(F)cc2)c2ccc(C)cc23)c1` (configuration not stated) was inactive: 16.4%. The same measure, in the same setting: the value for `Cc1cc(F)ccc1NC(=O)C1CCCN(c2nnc(-n3c(C)ccc3C)s2)C1` (configuration not stated) was inactive: 1.64%; that for `CSc1ccc(CCNC(=O)C(C)n2nc(C)c3c(C)n(-c4ccccc4)nc3c2=O)cc1` (configuration not stated) was inactive: -22.1%. Turning to `Cc1cc(C)n2nc(CNC(=O)c3cccc(Cl)c3)nc2n1`, the call was inactive. As for `CN(C)c1ccc(-c2nc(-c3ccccn3)no2)cc1[N+](=O)[O-]`, the “activity change, negative = inhibition” value is inactive: -2.98%.

Consider `Cc1ccc(NC(=O)COc2ccc3oc4c(c3c2)CCCC4)c(C)c1`, for which the “activity change, negative = inhibition” value is inactive: 25.1%. Regarding `Cc1ccc(CCNC(=O)Cn2nc(C)c3c(C)n(-c4ccc(C)cc4)nc3c2=O)cc1`, the “activity change, negative = inhibition” value is inactive: -1.34%.

In the case of `Cc1cccc(CNC(=O)c2ccc(-c3nc(CS(=O)(=O)c4ccccc4)c(C)o3)cc2)c1`, the “activity change, negative = inhibition” value was inactive: 1.54%. Consider `CC(C)COc1ccc(C(=O)NCC2OCCc3ccccc32)cc1` (configuration not stated), for which the “activity change, negative = inhibition” value is inactive: 7.21%. Still for that read-out and setting: under `CCOC(=O)c1c(C)n(-c2ccccc2)c2ccc(OC(=O)c3ccccc3Cl)cc12` stands inactive: 1.24%; under `Cc1ccc(Nc2cc(C(=O)NC3CCCC3)c3ccccc3n2)cc1C`, inactive: -11.5%.

In the case of `Nc1ncc(S(=O)(=O)NCc2ccccc2F)cn1`, the “activity change, negative = inhibition” value was inactive: 0.543%.

As for `COc1ccccc1N1CCN(C(=O)C2CCN(S(=O)(=O)c3cccc4nonc34)CC2)CC1`, the “activity change, negative = inhibition” value is inactive: -2.3%. The same measure, in the same setting: the value for `NC(=O)c1c(NC(=O)c2noc3c2CCCC3)sc2c1CCCC2` was inactive: -3%; that for `CCOc1ccc(CCNC(=O)C2CCCN(c3nnc(C)c4c(C)n(-c5ccccc5)nc34)C2)cc1` (configuration not stated) was inactive: -27.4%. Consider `CCn1c2ccccc2c2cc(NC(=O)COc3cc(C)c(Cl)c(C)c3)ccc21`, for which the “activity change, negative = inhibition” value was inactive: 0.238%. For `CCOc1ccc(-c2csc3ncnc(Nc4cccc(O)c4)c23)cc1`, the “activity change, negative = inhibition” value is inactive: 5.55%. The same measure, in the same setting: under `Cc1ccccc1C(=O)Nc1ccc(NC(=O)c2cccs2)cc1` stands inactive: 18.8%.

For `CCOC(=O)Cn1nc(C)c(NC(=O)COc2ccc(OC)cc2)c1C`, the result was inactive.

On to `COC(=O)c1cc(NC(=O)CCS(=O)(=O)c2cc(Br)cc3c2N(C(=O)C2CC2)CC3)cc(C(=O)OC)c1`, for which the “activity change, negative = inhibition” value was inactive: 1.67%. Regarding `CCOc1cc2[nH]c(=O)n(CCC(=O)N3CCN(c4cccc(Cl)c4)CC3)c(=O)c2cc1OCC`, the “activity change, negative = inhibition” value was inactive: -3.78%.

On to `COc1ccc2oc(=O)c(C(=O)NCCc3c(C)[nH]c4c(C)cccc34)cc2c1`, for which the “activity change, negative = inhibition” value was inactive: 1.02%.
